This note sets out measurements from US20240076343A1 (CEPHALON, published 2024).

The target of test [1] is T1, high-affinity hIL-2 receptor (IL-2Rαβγ) (human, UniProt P01589 22-272; P14784 27-551; P31785 23-369).
T1 sequence 1: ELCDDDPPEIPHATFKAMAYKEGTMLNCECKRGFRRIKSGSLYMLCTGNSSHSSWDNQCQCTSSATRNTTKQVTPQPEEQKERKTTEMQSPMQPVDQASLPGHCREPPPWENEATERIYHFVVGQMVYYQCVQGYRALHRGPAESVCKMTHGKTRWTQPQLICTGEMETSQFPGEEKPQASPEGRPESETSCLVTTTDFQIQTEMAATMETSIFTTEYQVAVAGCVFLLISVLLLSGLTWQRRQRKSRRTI
T1 sequence 2: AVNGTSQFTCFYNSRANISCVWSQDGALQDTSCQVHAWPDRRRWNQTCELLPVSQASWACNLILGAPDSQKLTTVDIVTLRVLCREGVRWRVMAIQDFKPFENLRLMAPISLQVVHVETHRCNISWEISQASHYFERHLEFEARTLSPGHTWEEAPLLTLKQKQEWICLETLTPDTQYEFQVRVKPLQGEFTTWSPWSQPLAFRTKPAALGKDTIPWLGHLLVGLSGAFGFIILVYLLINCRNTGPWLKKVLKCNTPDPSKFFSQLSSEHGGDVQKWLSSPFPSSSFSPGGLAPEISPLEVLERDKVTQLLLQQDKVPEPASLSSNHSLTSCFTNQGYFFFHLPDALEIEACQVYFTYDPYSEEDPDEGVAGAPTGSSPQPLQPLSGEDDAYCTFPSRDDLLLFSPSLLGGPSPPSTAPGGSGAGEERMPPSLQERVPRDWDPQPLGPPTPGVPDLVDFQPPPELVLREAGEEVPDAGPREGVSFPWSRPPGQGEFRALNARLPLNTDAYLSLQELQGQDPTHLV
T1 sequence 3: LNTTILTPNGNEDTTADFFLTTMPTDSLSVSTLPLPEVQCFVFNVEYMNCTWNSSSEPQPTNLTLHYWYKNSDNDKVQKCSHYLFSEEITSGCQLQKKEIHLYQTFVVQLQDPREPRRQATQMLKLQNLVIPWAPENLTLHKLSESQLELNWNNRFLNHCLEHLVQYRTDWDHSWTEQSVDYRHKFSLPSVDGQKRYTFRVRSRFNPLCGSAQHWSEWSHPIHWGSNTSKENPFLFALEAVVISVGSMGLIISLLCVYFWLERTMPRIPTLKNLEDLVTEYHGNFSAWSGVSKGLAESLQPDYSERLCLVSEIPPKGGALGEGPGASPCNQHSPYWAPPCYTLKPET
In words: cell-based or functional assay.

Test [2] addresses T2, intermediate affinity hIL-2 receptor complex (IL-2Rβγ) (human, UniProt P14784 27-551; P31785 23-369).
T2 sequence 1: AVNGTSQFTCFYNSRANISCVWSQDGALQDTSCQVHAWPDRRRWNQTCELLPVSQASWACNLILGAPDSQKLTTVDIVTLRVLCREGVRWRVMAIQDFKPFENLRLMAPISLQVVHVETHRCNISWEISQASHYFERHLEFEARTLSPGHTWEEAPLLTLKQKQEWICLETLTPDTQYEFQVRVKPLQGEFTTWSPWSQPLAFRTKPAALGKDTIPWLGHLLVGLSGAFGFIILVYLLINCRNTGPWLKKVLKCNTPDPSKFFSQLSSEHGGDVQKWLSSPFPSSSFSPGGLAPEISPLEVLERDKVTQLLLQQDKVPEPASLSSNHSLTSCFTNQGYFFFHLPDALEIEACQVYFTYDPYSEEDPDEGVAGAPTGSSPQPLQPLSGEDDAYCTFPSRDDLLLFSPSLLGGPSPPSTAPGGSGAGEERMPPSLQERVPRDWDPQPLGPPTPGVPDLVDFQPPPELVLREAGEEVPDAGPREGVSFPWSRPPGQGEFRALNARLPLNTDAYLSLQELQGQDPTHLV
T2 sequence 2: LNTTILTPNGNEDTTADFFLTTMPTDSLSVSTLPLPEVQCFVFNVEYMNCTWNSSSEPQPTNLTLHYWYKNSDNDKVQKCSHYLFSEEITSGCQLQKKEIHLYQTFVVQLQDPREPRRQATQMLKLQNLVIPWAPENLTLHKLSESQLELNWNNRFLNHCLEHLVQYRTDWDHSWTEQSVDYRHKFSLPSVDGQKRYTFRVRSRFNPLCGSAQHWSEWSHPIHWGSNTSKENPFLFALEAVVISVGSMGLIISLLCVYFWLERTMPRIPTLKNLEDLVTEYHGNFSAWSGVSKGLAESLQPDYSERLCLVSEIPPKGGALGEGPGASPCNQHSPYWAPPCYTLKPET
In words: cell-based or functional assay.

B1: 1H3-hIgG1-L6-hCD25(1-164)-L20-hIL-2 (E15A) (other)
heavy: EVQLVESGGGLVQPGRSLKLSCAVSGFTFSDYAMAWVRQAPKKGLEWVATISYDGSRTYYRDSVKGRFTISRDNAKITLYLQMDSLRSEDTATYYCARHGSGYFDYWGQGVMVTVSS[not shown - human IgG1 constant region]SGGGGSELCDDDPPEIPHATFKAMAYKEGTMLNCECKRGFRRIKSGSLYMLCTGNSSHSSWDNQCQCTSSATRNTTKQVTPQPEEQKERKTTEMQSPMQPVDQASLPGHCREPPPWENEATERIYHFVVGQMVYYQCVQGYRALHRGPAESVCKMTHGKTRWTQPQLICTSGGGGSGGGGSGGGGSGGGS[not shown - about 150 residues]
light: DTVLTQSPALAVSPGERVTISCRASESVRTGVHWYQQKPGQQPKLLIYGASNLESGVPARFSGSGSGTDFTLTIDPVEADDTATYFCQQSWNDPFTFGSGTKLEIKRTVAAPSVFIFPPSDEQLKSGTASVVCLLNNFYPREAKVQWKVDNALQSGNSQESVTEQDSKDSTYSLSSTLTLSKADYEKHKVYACEVTHQGLSSPVTKSFNRGEC
For the molecule B1, in test [1], the “Fold change from rhIL-2 (NK-92), pSTAT5 titration” value turned out to be 184 fold. Moreover, in test [2], the “Fold change from rhIL-2 (TF1 + IL-2Rβ), pSTAT5 titration” value (“Fold change from rhIL-2 (TF1 + IL-2Rβ)” below) worked out at 20 fold.

B2: 1H3-hIgG1-L6-hCD25(1-164)-L20-hIL-2 (D20S) (other)
heavy: EVQLVESGGGLVQPGRSLKLSCAVSGFTFSDYAMAWVRQAPKKGLEWVATISYDGSRTYYRDSVKGRFTISRDNAKITLYLQMDSLRSEDTATYYCARHGSGYFDYWGQGVMVTVSS[not shown - human IgG1 constant region]SGGGGSELCDDDPPEIPHATFKAMAYKEGTMLNCECKRGFRRIKSGSLYMLCTGNSSHSSWDNQCQCTSSATRNTTKQVTPQPEEQKERKTTEMQSPMQPVDQASLPGHCREPPPWENEATERIYHFVVGQMVYYQCVQGYRALHRGPAESVCKMTHGKTRWTQPQLICTSGGGGSGGGGSGGGGSGGGS[not shown - about 150 residues]
light: DTVLTQSPALAVSPGERVTISCRASESVRTGVHWYQQKPGQQPKLLIYGASNLESGVPARFSGSGSGTDFTLTIDPVEADDTATYFCQQSWNDPFTFGSGTKLEIKRTVAAPSVFIFPPSDEQLKSGTASVVCLLNNFYPREAKVQWKVDNALQSGNSQESVTEQDSKDSTYSLSSTLTLSKADYEKHKVYACEVTHQGLSSPVTKSFNRGEC
For the molecule B2, the “Fold change from rhIL-2 (NK-92), pSTAT5 titration” value in test [1] is 2400 fold. Besides, in test [2], the “Fold change from rhIL-2 (TF1 + IL-2Rβ)” value was greater than 10000 fold.

B3: 1H3-hIgG1-L6-hCD25(1-164)-L20-hIL-2 (D20I) (other)
heavy: EVQLVESGGGLVQPGRSLKLSCAVSGFTFSDYAMAWVRQAPKKGLEWVATISYDGSRTYYRDSVKGRFTISRDNAKITLYLQMDSLRSEDTATYYCARHGSGYFDYWGQGVMVTVSS[not shown - human IgG1 constant region]SGGGGSELCDDDPPEIPHATFKAMAYKEGTMLNCECKRGFRRIKSGSLYMLCTGNSSHSSWDNQCQCTSSATRNTTKQVTPQPEEQKERKTTEMQSPMQPVDQASLPGHCREPPPWENEATERIYHFVVGQMVYYQCVQGYRALHRGPAESVCKMTHGKTRWTQPQLICTSGGGGSGGGGSGGGGSGGGS[not shown - about 150 residues]
light: DTVLTQSPALAVSPGERVTISCRASESVRTGVHWYQQKPGQQPKLLIYGASNLESGVPARFSGSGSGTDFTLTIDPVEADDTATYFCQQSWNDPFTFGSGTKLEIKRTVAAPSVFIFPPSDEQLKSGTASVVCLLNNFYPREAKVQWKVDNALQSGNSQESVTEQDSKDSTYSLSSTLTLSKADYEKHKVYACEVTHQGLSSPVTKSFNRGEC
In the case of B3, the “Fold change from rhIL-2 (NK-92), pSTAT5 titration” value in test [1] is greater than 10000 fold. Moreover, in test [2], the “Fold change from rhIL-2 (TF1 + IL-2Rβ)” value was greater than 10000 fold.
